Laboratory results taken from publication PMC12820563.
This is one part of the list. The list includes weakly bound sequences.

target: T1, MBP-FoxP3dN (UniProt Q99JB6); experiment: PD-seq (MBP pull-down with sequencing); settings: 20 mM Tris-HCl pH 7.5, 100 mM NaCl, 1.5 mM MgCl2, 0.4 uM protein, 0.1 uM dsDNA library, 30 min, room temperature, amylose pull-down; high values mean tight binding; double strand, one strand shown
T1 sequence: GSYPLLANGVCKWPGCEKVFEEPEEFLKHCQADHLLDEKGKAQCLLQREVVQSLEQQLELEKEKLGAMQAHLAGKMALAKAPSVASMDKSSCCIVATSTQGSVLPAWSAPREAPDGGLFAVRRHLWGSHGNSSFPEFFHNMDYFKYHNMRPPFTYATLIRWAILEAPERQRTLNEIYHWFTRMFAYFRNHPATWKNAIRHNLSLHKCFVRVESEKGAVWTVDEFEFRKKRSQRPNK

Sequence	binding signal (RPM ratio (pull-down/input))
GATGATTGTTCTCCCAGCTGATGAATTGACCAATTCGAGTAAACAAATTTTCCTAATCTTTCTGTTCAAGCGCCATCTAC	0.351
GATGATTGTTCTCCCAGCTGATGAATTTTATAAGTCGAGTAAACAAATTTTCCTAATCTTTCTGTTCAAGCGCCATCTAC	0.377
GATGATTGTTCTCCCAGCTGATGAATTAAGTTCTTCGAGTAAACAAATTTTCCTAATCTTTCTGTTCAAGCGCCATCTAC	0.522
GATGATTGTTCTCCCAGCTGATGAATTTTCCTGGTCGAGTAAACAAATTTTCCTAATCTTTCTGTTCAAGCGCCATCTAC	0.168
GATGATTGTTCTCCCAGCTGATGAATTGCTATGCTCGAGTAAACAAATTTTCCTAATCTTTCTGTTCAAGCGCCATCTAC	0.857
GATGATTGTTCTCCCAGCTGATGAATTTTAAATGTCGAGTAAACAAATTTTCCTAATCTTTCTGTTCAAGCGCCATCTAC	0.398
GATGATTGTTCTCCCAGCTGATGAATTTTTCCAGTCGAGTAAACAAATTTTCCTAATCTTTCTGTTCAAGCGCCATCTAC	0.201
GATGATTGTTCTCCCAGCTGATGAATTGCATTAGTCGAGTAAACAAATTTTCCTAATCTTTCTGTTCAAGCGCCATCTAC	2.07
GATGATTGTTCTCCCAGCTGATGAATTCGCTGCGTCGAGTAAACAAATTTTCCTAATCTTTCTGTTCAAGCGCCATCTAC	0.611
GATGATTGTTCTCCCAGCTGATGAATTAGGACAATCGAGTAAACAAATTTTCCTAATCTTTCTGTTCAAGCGCCATCTAC	0.401
GATGATTGTTCTCCCAGCTGATGAATTACCCATTTCGAGTAAACAAATTTTCCTAATCTTTCTGTTCAAGCGCCATCTAC	0.338
GATGATTGTTCTCCCAGCTGATGAATTATCGTTTTCGAGTAAACAAATTTTCCTAATCTTTCTGTTCAAGCGCCATCTAC	0.703
GATGATTGTTCTCCCAGCTGATGAATTGCCTGGCTCGAGTAAACAAATTTTCCTAATCTTTCTGTTCAAGCGCCATCTAC	0.584
GATGATTGTTCTCCCAGCTGATGAATTACTTACGTCGAGTAAACAAATTTTCCTAATCTTTCTGTTCAAGCGCCATCTAC	0.48
GATGATTGTTCTCCCAGCTGATGAATTGGGGCGATCGAGTAAACAAATTTTCCTAATCTTTCTGTTCAAGCGCCATCTAC	0.488
GATGATTGTTCTCCCAGCTGATGAATTTGGTCCGTCGAGTAAACAAATTTTCCTAATCTTTCTGTTCAAGCGCCATCTAC	0.363
GATGATTGTTCTCCCAGCTGATGAATTTTTATTGTCGAGTAAACAAATTTTCCTAATCTTTCTGTTCAAGCGCCATCTAC	0.972
GATGATTGTTCTCCCAGCTGATGAATTGGTACTGTCGAGTAAACAAATTTTCCTAATCTTTCTGTTCAAGCGCCATCTAC	0.64
GATGATTGTTCTCCCAGCTGATGAATTCACAATGTCGAGTAAACAAATTTTCCTAATCTTTCTGTTCAAGCGCCATCTAC	0.427
GATGATTGTTCTCCCAGCTGATGAATTTAGTTATTCGAGTAAACAAATTTTCCTAATCTTTCTGTTCAAGCGCCATCTAC	4.3

Sequence	binding signal (RPM ratio (pull-down/input))
GATGATTGTTCTCCCAGCTGATGAATTGATTCCTTCGAGTAAACAAATTTTCCTAATCTTTCTGTTCAAGCGCCATCTAC	0.401
GATGATTGTTCTCCCAGCTGATGAATTAGTCACGTCGAGTAAACAAATTTTCCTAATCTTTCTGTTCAAGCGCCATCTAC	1.16
GATGATTGTTCTCCCAGCTGATGAATTATTCCGGTCGAGTAAACAAATTTTCCTAATCTTTCTGTTCAAGCGCCATCTAC	0.22
GATGATTGTTCTCCCAGCTGATGAATTTATCAGATCGAGTAAACAAATTTTCCTAATCTTTCTGTTCAAGCGCCATCTAC	0.318
GATGATTGTTCTCCCAGCTGATGAATTAGTAGGCTCGAGTAAACAAATTTTCCTAATCTTTCTGTTCAAGCGCCATCTAC	0.807
GATGATTGTTCTCCCAGCTGATGAATTGCGGCAGTCGAGTAAACAAATTTTCCTAATCTTTCTGTTCAAGCGCCATCTAC	0.792
GATGATTGTTCTCCCAGCTGATGAATTACGAGCCTCGAGTAAACAAATTTTCCTAATCTTTCTGTTCAAGCGCCATCTAC	0.504
GATGATTGTTCTCCCAGCTGATGAATTTACCATGTCGAGTAAACAAATTTTCCTAATCTTTCTGTTCAAGCGCCATCTAC	0.579
GATGATTGTTCTCCCAGCTGATGAATTGGCTTCATCGAGTAAACAAATTTTCCTAATCTTTCTGTTCAAGCGCCATCTAC	0.462
GATGATTGTTCTCCCAGCTGATGAATTCCGTGTATCGAGTAAACAAATTTTCCTAATCTTTCTGTTCAAGCGCCATCTAC	1.76
GATGATTGTTCTCCCAGCTGATGAATTGCATCCGTCGAGTAAACAAATTTTCCTAATCTTTCTGTTCAAGCGCCATCTAC	4.2
GATGATTGTTCTCCCAGCTGATGAATTTGATTCGTCGAGTAAACAAATTTTCCTAATCTTTCTGTTCAAGCGCCATCTAC	1.8
GATGATTGTTCTCCCAGCTGATGAATTATCGAGGTCGAGTAAACAAATTTTCCTAATCTTTCTGTTCAAGCGCCATCTAC	0.218
GATGATTGTTCTCCCAGCTGATGAATTATTTTTGTCGAGTAAACAAATTTTCCTAATCTTTCTGTTCAAGCGCCATCTAC	0.947
GATGATTGTTCTCCCAGCTGATGAATTAACCTGTTCGAGTAAACAAATTTTCCTAATCTTTCTGTTCAAGCGCCATCTAC	0.281
GATGATTGTTCTCCCAGCTGATGAATTGCTTTCCTCGAGTAAACAAATTTTCCTAATCTTTCTGTTCAAGCGCCATCTAC	1.15
GATGATTGTTCTCCCAGCTGATGAATTGCCCCCGTCGAGTAAACAAATTTTCCTAATCTTTCTGTTCAAGCGCCATCTAC	0.406
GATGATTGTTCTCCCAGCTGATGAATTATGGTTATCGAGTAAACAAATTTTCCTAATCTTTCTGTTCAAGCGCCATCTAC	1.46
GATGATTGTTCTCCCAGCTGATGAATTCGACGCATCGAGTAAACAAATTTTCCTAATCTTTCTGTTCAAGCGCCATCTAC	0.992
GATGATTGTTCTCCCAGCTGATGAATTCCTGAGCTCGAGTAAACAAATTTTCCTAATCTTTCTGTTCAAGCGCCATCTAC	0.192
